Reference: PubChem BioAssay AID504333 (National Center for Advancing Translational Sciences (NCATS), 2011)
Out of some 360,000 compounds screened, about 16,000 (4.4%) were called active. Calls come from the whole dose curve; as a rule, active = well fitted inhibition curve with a large enough effect; inconclusive = small, poorly fitted or top-dose-only effect; inactive = no such curve, though single readings can be large or run the other way. The inconclusive results got no clear call from the source. A potency beside an inconclusive call is a rough fit, not a confirmed value.

target: Bromodomain adjacent to zinc finger domain protein 2B (Homo sapiens) (UniProt Q9UIF8); assay: qHTS Assay for Inhibitors of BAZ2B; conditions: AlphaScreen BAZ2B-H3K14Ac peptide displacement; series mostly up to 114 µM; note: nearly all actives have a fitted effect of over 60% in size
Chain of UniProt Q9UIF8 (Q9UIF8 whole entry, looked up, the tested form may be a part): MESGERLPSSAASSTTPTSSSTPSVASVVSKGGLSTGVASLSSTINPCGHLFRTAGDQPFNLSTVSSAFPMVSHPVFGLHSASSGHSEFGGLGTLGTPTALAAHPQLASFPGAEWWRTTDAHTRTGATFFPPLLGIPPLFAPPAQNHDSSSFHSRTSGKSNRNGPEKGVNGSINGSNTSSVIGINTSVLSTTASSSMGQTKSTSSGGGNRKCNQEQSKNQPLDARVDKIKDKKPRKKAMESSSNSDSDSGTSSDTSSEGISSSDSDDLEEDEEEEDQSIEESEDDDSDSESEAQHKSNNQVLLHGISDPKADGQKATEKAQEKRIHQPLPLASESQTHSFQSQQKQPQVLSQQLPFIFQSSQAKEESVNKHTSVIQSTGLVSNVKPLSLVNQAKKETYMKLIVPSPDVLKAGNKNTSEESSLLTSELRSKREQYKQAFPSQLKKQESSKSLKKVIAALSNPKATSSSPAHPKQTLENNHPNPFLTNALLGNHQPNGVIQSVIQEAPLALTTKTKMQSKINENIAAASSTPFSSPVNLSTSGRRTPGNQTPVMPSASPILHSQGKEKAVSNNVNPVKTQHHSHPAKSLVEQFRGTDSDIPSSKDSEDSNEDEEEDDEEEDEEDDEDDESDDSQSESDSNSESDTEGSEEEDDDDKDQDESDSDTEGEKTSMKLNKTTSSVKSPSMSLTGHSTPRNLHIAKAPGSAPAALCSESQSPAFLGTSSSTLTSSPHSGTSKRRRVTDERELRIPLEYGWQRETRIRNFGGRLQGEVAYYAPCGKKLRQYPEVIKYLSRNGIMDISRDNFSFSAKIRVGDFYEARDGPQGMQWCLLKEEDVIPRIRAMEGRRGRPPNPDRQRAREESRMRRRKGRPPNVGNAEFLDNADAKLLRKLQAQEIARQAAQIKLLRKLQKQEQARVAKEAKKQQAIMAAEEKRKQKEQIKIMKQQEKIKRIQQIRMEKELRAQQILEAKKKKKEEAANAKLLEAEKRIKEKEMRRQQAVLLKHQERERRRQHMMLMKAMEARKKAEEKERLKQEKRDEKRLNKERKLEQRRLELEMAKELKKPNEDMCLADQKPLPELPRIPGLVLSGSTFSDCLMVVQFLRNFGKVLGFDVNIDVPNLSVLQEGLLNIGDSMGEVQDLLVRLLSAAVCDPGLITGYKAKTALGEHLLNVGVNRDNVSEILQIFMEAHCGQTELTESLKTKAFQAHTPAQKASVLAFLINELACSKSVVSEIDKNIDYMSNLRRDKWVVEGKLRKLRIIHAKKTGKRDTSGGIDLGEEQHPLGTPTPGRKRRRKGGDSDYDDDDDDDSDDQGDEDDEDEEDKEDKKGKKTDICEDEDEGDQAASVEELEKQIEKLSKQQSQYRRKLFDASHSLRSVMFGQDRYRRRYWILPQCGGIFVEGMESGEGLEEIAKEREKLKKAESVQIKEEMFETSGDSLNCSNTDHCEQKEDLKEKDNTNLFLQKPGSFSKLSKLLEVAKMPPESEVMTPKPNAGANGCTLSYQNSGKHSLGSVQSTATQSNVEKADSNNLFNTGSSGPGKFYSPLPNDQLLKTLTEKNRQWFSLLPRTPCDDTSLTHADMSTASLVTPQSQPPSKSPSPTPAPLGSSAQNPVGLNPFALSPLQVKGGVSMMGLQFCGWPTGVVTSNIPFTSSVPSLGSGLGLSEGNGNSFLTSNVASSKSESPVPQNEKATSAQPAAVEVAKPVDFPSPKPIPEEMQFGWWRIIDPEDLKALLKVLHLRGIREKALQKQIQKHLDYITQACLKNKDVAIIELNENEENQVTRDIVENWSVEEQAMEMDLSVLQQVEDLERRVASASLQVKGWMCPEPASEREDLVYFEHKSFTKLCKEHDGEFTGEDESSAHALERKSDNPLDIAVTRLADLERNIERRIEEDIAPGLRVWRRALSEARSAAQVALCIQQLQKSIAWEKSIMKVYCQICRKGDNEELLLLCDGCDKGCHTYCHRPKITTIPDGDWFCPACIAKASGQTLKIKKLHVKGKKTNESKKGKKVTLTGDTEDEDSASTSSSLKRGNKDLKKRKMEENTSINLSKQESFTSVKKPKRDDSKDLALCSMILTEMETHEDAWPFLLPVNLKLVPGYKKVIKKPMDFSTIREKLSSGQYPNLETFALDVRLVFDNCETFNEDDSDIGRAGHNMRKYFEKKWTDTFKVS
From the text: BAZ2B (bromodomain adjacent to zinc finger domain, 2B) belongs to a family of ubiquitously expressed bromodomain containing proteins, which biological function has not yet been elucidated. […] The interaction of BAZ2B with ISWI mediated by the BAZ1 motif has recently been described. […] The protocol is based on the AlphaScreen (PerkinElmer) displacement assay developed by NCGC [5], but uses the peptide ligand Biot-H3K14Ac, a high affinity binding partner for BAZ2B, in an AlphaScreen format. Although AlphaScreen has significant advantages with its utility in a variety of epigenetic target assays, the primary screening data provided in this deposition should be used with caution due to the prevalence of screening artifacts. The top compound concentration tested was 110uM in this assay, which increases number of actives and potential artifacts. […] Yasgar, et al. Compound Management for Quantitative High-Throughput Screening. […] Inglese, et al. Quantitative high-throughput screening: a titration-based approach that efficiently identifies biological activities in large chemical libraries. […]
To each well of a 1,536w plate, 2ul of BAZ2B protein (final 50nM) and 1ul biotinylated histone peptide acetylated at Lys14 [b-H3(5-23)K14Ac] […] Plates were read on an EnVision multilabel plate reader using the 1,536 plate HTS AlphaScreen aperture (excitation time 80 ms, measurement time 240 ms).
Potency is the fitted concentration of half-maximal effect; tags give direction and shape of the fitted curve.

Structure (SMILES)	Potency
CCOc1cc(NS(=O)(=O)c2ccc(OC)cc2)c(OCC)cc1NC(C)=O	inconclusive: 89.1 µM [inhibitor, single point]
